The results in this text go back to patent US11618753B2 (priority 2018, dated 2023).

The assay concerns MLKL phosphorylation, HT29-L23 human colorectal adenocarcinoma cells. Nature of the assay: cells. The settings on record: read-out: pMLKL HCS Cell Assay (IC50, uM).
Turning to `Nc1ncnn2c(-c3ccc(OC(F)(F)F)c(C(=O)N[C@@H]4CN(C(=O)C5(F)CC5)C[C@@H]4F)c3)cc(C(F)(F)F)c12` [Example 1052, 5-[4-amino-5-(trifluoromethyl)pyrrolo[2,1-f][1,2,4]triazin-7-yl]-N-[(3R,4S)-4-fluoro-1-(1-fluorocyclopropanecarbonyl)pyrrolidin-3-yl]-2-(trifluoromethoxy)benzamide], the IC50 is 0.263 µM.

For the compound `Nc1ncnn2c(-c3cc(C(=O)N[C@@H]4CN(C(=O)C5CCC(F)(F)C5)C[C@@H]4F)c(F)cc3F)cc(C(F)(F)F)c12` (stereo partly drawn) [Example 789, 5-[4-amino-5-(trifluoromethyl)pyrrolo[2,1-f][1,2,4]triazin-7-yl]-N-[(3R,4S)-1-(3,3-difluorocyclopentanecarbonyl)-4-fluoropyrrolidin-3-yl]-2,4-difluorobenzamide], the IC50 is 0.029 µM.

`Cc1ccc(-c2cc(C(F)(F)F)c3c(N)ncnn23)cc1C(=O)N[C@@H]1CN(C(=O)c2cc(F)c(F)cc2Cl)C[C@@H]1F` [Example 1025, 5-[4-amino-5-(trifluoromethyl)pyrrolo[2,1-f][1,2,4]triazin-7-yl]-N-[(3R,4S)-1-(2-chloro-4,5-difluorobenzoyl)-4-fluoropyrrolidin-3-yl]-2-methylbenzamide]: the IC50 worked out at 0.0029 µM.

For `COc1ncc(-c2cc(C(F)(F)F)c3c(N)ncnn23)cc1C(=O)N[C@@H]1CN(C2CCCc3ccccc32)C[C@@H]1F` (mixture of isomers) [Example 1361, 5-[4-amino-5-(trifluoromethyl)-pyrrolo[2,1-f][1,2,4]triazin-7-yl]-N-[(3R,4S)-4-fluoro-1-(1,2,3,4-tetrahydro-naphthalen-1-yl)pyrrolidin-3-yl]-2-methoxypyridine-3-carboxamide], the IC50 was 0.03 µM.

Consider `Cc1c(F)cc(-c2cc(C(F)(F)F)c3c(N)ncnn23)cc1C(=O)N[C@@H]1CN(C(=O)C2CCC(F)(F)CC2)C[C@@H]1F` [Example 674, 5-[4-amino-5-(trifluoromethyl)pyrrolo[2,1-f][1,2,4]triazin-7-yl]-N-[(3R,4S)-1-(4,4-difluorocyclohexanecarbonyl)-4-fluoropyrrolidin-3-yl]-3-fluoro-2-methylbenzamide], for which the IC50 worked out at 0.0049 µM.

Turning to `Nc1ncnn2c(-c3cccc(C(=O)N[C@@H]4CN(C(=O)C5(C(F)(F)F)CCCC5)C[C@@H]4F)c3)cc(C(F)(F)F)c12` [Example 99, 3-[4-amino-5-(trifluoromethyl)pyrrolo[2,1-f][1,2,4]triazin-7-yl]-N-[(3R,4S)-4-fluoro-1-[1-(trifluoromethyl)cyclopentanecarbonyl]pyrrolidin-3-yl]benzamide], the IC50 came to 0.218 µM.

Consider `Cc1nc(C)c(-c2cc(C(F)(F)F)c3c(N)ncnn23)cc1C(=O)N[C@@H]1CN(C(=O)CC(C)(O)C(F)(F)F)C[C@@H]1F` (stereo partly drawn) [Example 1194, 5-[4-amino-5-(trifluoromethyl)pyrrolo[2,1-f][1,2,4]triazin-7-yl]-N-[(3R,4S)-4-fluoro-1-(4,4,4-trifluoro-3-hydroxy-3-methylbutanoyl)pyrrolidin-3-yl]-2,6-dimethylpyridine-3-carboxamide], for which the IC50 stood at 0.166 µM.

For `COc1cc(F)c(-c2cc(C(F)(F)F)c3c(N)ncnn23)cc1C(=O)N[C@@H]1CN(C(=O)CC(C)(O)C(F)(F)F)C[C@@H]1F` (stereo partly drawn) [Example 879, 5-[4-amino-5-(trifluoromethyl)pyrrolo[2,1-f][1,2,4]triazin-7-yl]-4-fluoro-N-[(3R,4S)-4-fluoro-1-(4,4,4-trifluoro-3-hydroxy-3-methylbutanoyl)pyrrolidin-3-yl]-2-methoxybenzamide], the IC50 was determined as 0.0046 µM.

On to `COc1ncc(-c2cc(C(F)(F)F)c3c(N)ncnn23)cc1C(=O)N[C@@H]1CN(S(=O)(=O)C2CC2)C[C@@H]1F` [Example 1461, 5-[4-amino-5-(trifluoromethyl)pyrrolo[2,1-f][1,2,4]triazin-7-yl]-N-[(3R,4S)-1-(cyclopropanesulfonyl)-4-fluoropyrrolidin-3-yl]-2-methoxypyridine-3-carboxamide], for which the IC50 came out at 0.032 µM.

For the compound `Cc1c(F)cc(-c2cc(C(F)(F)F)c3c(N)ncnn23)cc1C(=O)N[C@@H]1CN(C(=O)C(C)(C)F)C[C@@H]1F` [Example 673, 5-[4-amino-5-(trifluoromethyl)pyrrolo[2,1-f][1,2,4]triazin-7-yl]-3-fluoro-N-[(3R,4S)-4-fluoro-1-(2-fluoro-2-methylpropanoyl)pyrrolidin-3-yl]-2-methylbenzamide], the IC50 worked out at 0.0079 µM.

On to `COc1ncc(-c2cc(C(F)(F)F)c3c(N)ncnn23)cc1C(=O)Nc1ncn(Cc2ccccc2)c1C` [Example 1796, 5-(4-amino-5-(trifluoromethyl)pyrrolo[2,1-f][1,2,4]triazin-7-yl)-N-(1-benzyl-5-methyl-1H-imidazol-4-yl)-2-methoxynicotinamide], for which the IC50 came to 0.243 µM.

Turning to `CCOc1ccc(-c2cc(C(F)(F)F)c3c(N)ncnn23)cc1C(=O)N[C@@H]1CN(C(=O)CC(C)C)C[C@@H]1F` [Example 1113, 5-[4-amino-5-(trifluoromethyl)pyrrolo[2,1-f][1,2,4]triazin-7-yl]-2-ethoxy-N-[(3R,4S)-4-fluoro-1-(3-methylbutanoyl)pyrrolidin-3-yl]benzamide], the IC50 stood at 0.029 µM.

As for `COc1ncc(-c2cc(CN3CCC(F)(F)CC3)c3c(N)ncnn23)cc1C(=O)N[C@H]1CCC[C@@H](c2ccccc2)C1` (racemic) [Example 1695, 5-(4-amino-5-((4,4-difluoropiperidin-1-yl)methyl)pyrrolo[2,1-f][1,2,4]triazin-7-yl)-2-methoxy-N-((1SR,3RS)-3-phenylcyclohexyl)nicotinamide], the 50% inhibitory concentration (IC50) came out at 0.009 µM.

Turning to `CC(C(=O)N1C[C@H](F)[C@H](NC(=O)c2cc(-c3cc(C(F)(F)F)c4c(N)ncnn34)cc(F)c2Cl)C1)C(F)(F)F` (mixture of isomers) [Example 633, 5-[4-amino-5-(trifluoromethyl)pyrrolo[2,1-f][1,2,4]triazin-7-yl]-2-chloro-3-fluoro-N-[(3R,4S)-4-fluoro-1-(3,3,3-trifluoro-2-methylpropanoyl)pyrrolidin-3-yl]benzamide], the IC50 amounted to 0.0038 µM.

Turning to `Cc1cc(F)c(-c2cc(C(F)(F)F)c3c(N)ncnn23)cc1C(=O)N[C@@H]1CN(C(=O)c2ccc(OC(F)(F)F)cn2)C[C@@H]1F` [Example 843, 5-[4-amino-5-(trifluoromethyl)pyrrolo[2,1-f][1,2,4]triazin-7-yl]-4-fluoro-N-[(3R,4S)-4-fluoro-1-[5-(trifluoromethoxy)pyridine-2-carbonyl]pyrrolidin-3-yl]-2-methylbenzamide], the IC50 was determined as 0.357 µM.

In the case of `COc1ncc(-c2cc(C(F)(F)F)c3c(N)ncnn23)cc1C(=O)N[C@@H]1CN(S(=O)(=O)C2CCCC2)C[C@@H]1F` [Example 1463, 5-[4-amino-5-(trifluoromethyl)pyrrolo[2,1-f][1,2,4]triazin-7-yl]-N-[(3R,4S)-1-(cyclopentanesulfonyl)-4-fluoropyrrolidin-3-yl]-2-methoxypyridine-3-carboxamide], the IC50 was 0.002 µM.

Take `COc1ncc(-c2cc(C(F)(F)F)c3c(N)ncnn23)cc1C(=O)N[C@@H]1CN(C(=O)OC2(C3CC3)CC2)C[C@@H]1F` [Example 1433, [1,1′-bi(cyclopropane)]-1-yl (3R,4S)-3-{5-[4-amino-5-(trifluoromethyl)pyrrolo[2,1-f][1,2,4]triazin-7-yl]-2-methoxypyridine-3-amido}-4-fluoropyrrolidine-1-carboxylate]: the IC50 stood at 0.011 µM.

Consider `COc1ncc(-c2cc(C(F)(F)F)c3c(N)ncnn23)cc1C(=O)NC1CN(C(=O)[C@@](C)(O)C(F)(F)F)CC[C@H]1F` (stereo in doubt) [Example 1580, 5-[4-amino-5-(trifluoromethyl)pyrrolo[2,1-f][1,2,4]triazin-7-yl]-N-[(3R,4R)-4-fluoro-1-[(2R)-3,3,3-trifluoro-2-hydroxy-2-methylpropanoyl]piperidin-3-yl]-2-methoxypyridine-3-carboxamide], for which the IC50 amounted to 0.117 µM.

For the compound `Cc1ncc(-c2cc(C(F)(F)F)c3c(N)ncnn23)cc1C(=O)N1CCCC(C(C)(O)c2ccc(F)cc2)C1` (centres unmarked) [Example 1735, (5-(4-amino-5-(trifluoromethyl)pyrrolo[2,1-f][1,2,4]triazin-7-yl)-2-methylpyridin-3-yl)(3-(1-(4-fluorophenyl)-1-hydroxyethyl)piperidin-1-yl)methanone], the IC50 worked out at 0.251 µM.

Turning to `COc1ncc(-c2cc(CN3CCC3)c3c(N)ncnn23)cc1C(=O)N[C@@H]1CN(C(=O)c2ccccc2F)C[C@@H]1F` [Example 1615, 5-{4-amino-5-[(azetidin-1-yl)methyl]pyrrolo[2,1-f][1,2,4]triazin-7-yl}-N-[(3R,4S)-4-fluoro-1-(2-fluorobenzoyl)pyrrolidin-3-yl]-2-methoxypyridine-3-carboxamide], the IC50 amounted to 0.0055 µM.

For the compound `Nc1ncnn2c(-c3ccc(Cl)c(C(=O)N[C@@H]4CN(C(=O)c5ccccc5F)C[C@@H]4F)c3)cc(CN3CCC(C(F)(F)F)CC3)c12` [Example 1158, 5-(4-amino-5-{[4-(trifluoromethyl)piperidin-1-yl]methyl}pyrrolo[2,1-f][1,2,4]triazin-7-yl)-2-chloro-N-[(3R,4S)-4-fluoro-1-(2-fluorobenzoyl)pyrrolidin-3-yl]benzamide], the IC50 stood at 0.0023 µM.

As for `COc1ncc(-c2cc(C(F)(F)F)c3c(N)ncnn23)cc1C(=O)N[C@@H]1CN(C(=O)C2(C(F)(F)F)CC2)C[C@@H]1F` [Example 1671, 5-(4-amino-5-(trifluoromethyl)pyrrolo[2,1-f][1,2,4]triazin-7-yl)-N-((3R,4S)-4-fluoro-1-(1-(trifluoromethyl)cyclopropane-1-carbonyl)pyrrolidin-3-yl)-2-methoxynicotinamide], the IC50 came to 0.008 µM.

As to `COc1ncc(-c2cc(C(F)(F)F)c3c(N)ncnn23)cc1C(=O)N[C@@H]1CN(C(C)c2cc(F)cc(F)c2O)C[C@@H]1F` (stereo partly drawn) [Example 1393, 5-[4-amino-5-(trifluoromethyl)-pyrrolo[2,1-f][1,2,4]triazin-7-yl]-N-[(3R,4S)-1-[1-(3,5-difluoro-2-hydroxyphenyl)-ethyl]-4-fluoropyrrolidin-3-yl]-2-methoxypyridine-3-carboxamide], the IC50 is 0.018 µM.

Usually IC50 stands for the concentration at which inhibition is half-maximal.
